We go through 84 compounds from ChEMBL document CHEMBL4888484, “Replenishing the malaria drug discovery pipeline: Screening and hit evaluation of the MMV Hit Generation Library 1 (HGL1) against asexual blood stage Plasmodium falciparum ,using a nano luciferase reporter read-out” (2022).

In all, about 150,000 compounds went through this assay and about 540 (0.36%) showed an effect of 50% or more. The list shows a part of the results.

In this experiment the test system is Plasmodium falciparum. The experiment in a line: Primary screen in NF54 nanoGlo assay, in single point, at 2uM, 72h; a lower Z score goes with more inhibition. The following applies: timepoint 72 hour. The experiment is classed as functional, Erythrocyte.
Broadly, the % Inhibition is the drop in the measured response relative to a control, in per cent. For the compound `CCOC(=O)N1CCN(C(=O)C[C@]2(c3ccccc3)CC(=O)N(CCc3ccccn3)C2=O)CC1`, the “% Inhibition” value is given as -5% and the Z score is recorded as 0.98.
In the case of `CCN1CCCN(S(=O)(=O)c2ccc3c(c2)CCC3)CC12CCOCC2`, the “% Inhibition” value stood at 0% and the Z score worked out at 0.02.
For the compound `Cc1nn(CC(=O)Nc2ccc3c(c2)C(=O)N2CCC[C@H]2C(=O)N3)c(C)c1Br`, the “% Inhibition” value came out at 9% and the Z score was -1.21.
As for `COc1cc(C(=O)NCc2ccc(Cl)s2)ccc1OC1CCN(C)CC1`, the “% Inhibition” value was -1% and the Z score was 0.14.
On the same counts, the results for `O=C(N[C@H]1CCCn2ncnc21)c1c(F)ccc2c1OCO2` are 3% and -0.44.
For the compound `Cc1ccc(-n2cc3c(N4CCC(C(=O)NCc5ccc(Cl)cc5)CC4)ncnc3n2)cc1`, the “% Inhibition” value is 20% and the Z score was -1.87.
In the case of `COc1c(F)cccc1S(=O)(=O)N[C@@H]1Cc2ccccc2[C@H]1N`, the “% Inhibition” value is -11% and the Z score is given as 2.18.
With `C[C@@]1(O)CCN(CC2CC2)[C@@H](c2cccs2)[C@@H]1NC(=O)c1ccc(F)cc1`, the “% Inhibition” value is -13% and the Z score came to 1.97.
On the same counts, the results for `O=C(CN1CCN(c2ccc(C(F)(F)F)nn2)CC1)Nc1nncs1` are 1% and -0.11.
Take `CCn1c(=O)c2[nH]cc(-c3ccccc3)c2n2c(=O)[nH]nc12`: the “% Inhibition” value stood at 0% and the Z score came to 0.06.
On to `COc1ccc([C@H]2[C@H](C(=O)NC3CCCCCC3)CCC(=O)N2C)cc1`, for which the “% Inhibition” value worked out at 36% and the Z score was -4.07.
On to `Oc1ncnc2nc3n(c12)CCCCC3`, for which the “% Inhibition” value is reported as -6% and the Z score is 0.53.
`COc1ccc(CN2CC[C@H]3CN(C(C)=O)C[C@@]3(CO)C2)cc1C`: the “% Inhibition” value is -4% and the Z score was found to be 0.64.
The corresponding values for `Cc1nsc(NC(=O)c2cccs2)n1` are -4% and 0.55.
On the same counts, the results for `Cn1ccc2c(-c3c[nH]c(=O)[nH]c3=O)ccnc21` are -8% and 0.98.
As for `COCC1(CNC(=O)C2CCCCC2)CCC1`, the “% Inhibition” value is reported as 2% and the Z score is reported as -0.32.
On the same counts, the results for `COc1ccc(CN2C(=O)N[C@@H](CCC(=O)N3CCOCC3)C2=O)cc1` are -5% and 0.62.
The corresponding values for `Cn1ncc(CN2C(=O)N[C@@](C)(C(C)(C)C)C2=O)c1C(F)(F)F` are -13% and 2.52.
On to `COc1cccc(N2CCN(C(=O)C3CC(=O)N(C4CCS(=O)(=O)C4)C3)CC2)c1` (stereo not drawn), for which the “% Inhibition” value is on record as -7% and the Z score was determined as 1.
Regarding `COc1cccc(S(=O)(=O)N2CCCN(Cc3ccncc3)[C@H](c3ccccc3)CC(=O)NCC2)c1`, the “% Inhibition” value is 92% and the Z score is recorded as -7.9.
With `O=C(CN1CCC(Cc2nc3ccccc3[nH]2)CC1)N1CCCCC1`, the “% Inhibition” value is reported as 1% and the Z score is -0.09.
Regarding `Cc1cc(C)cc(NC(=O)c2cc3n(n2)C[C@@H](c2ccc4c(c2)OCO4)OC3)c1`, the “% Inhibition” value is recorded as -12% and the Z score was found to be 1.36.
On the same counts, the results for `c1nc(CN[C@H]2CCCC23CCCCC3)cs1` are 11% and -1.41.
The corresponding values for `Cc1ccc(F)cc1NC(=O)c1cnc2c(C)cccn2c1=O` are 1% and -0.15.
On the same counts, the results for `CN(C)[C@H]1CN(C(=O)c2cccc(-c3ccc(-c4ccno4)cc3)c2)C[C@@H]1O` are -7% and 0.61.
As for `c1ccc2c(CNC3CCCCC3)cccc2c1`, the “% Inhibition” value is given as 3% and the Z score is listed as -0.37.
As to `CCCCN(C)C[C@@H](C)NC(=O)c1cccc(Cl)c1F`, the “% Inhibition” value is on record as -5% and the Z score amounted to 0.65.
In the case of `Cn1nc(CC2CCN(Cc3ccncc3)CC2)n(-c2ccccc2)c1=O`, the “% Inhibition” value is given as -13% and the Z score is on record as 1.77.
The corresponding values for `O=S(=O)(C1CCCC1)N1CCCC1` are 2% and -0.29.
In the case of `O=c1sc2ccccc2n1Cc1cccc2ccccc12`, the “% Inhibition” value is reported as 0% and the Z score stood at 0.05.
Consider `CC(C)c1csc(C(=O)N2CCN(C)[C@@H](CO)C2)n1`, for which the “% Inhibition” value turned out to be 8% and the Z score is on record as -1.44.
For `O=C(CCCN1C(=O)c2ccccc2C1=O)N1CCc2ccccc2C1`, the “% Inhibition” value is reported as -4% and the Z score was determined as 0.55.
The corresponding values for `Cc1ccc(CNC(=O)c2c(C)c3c(=O)n(CC(=O)Nc4ccccc4)ncn3c2C)cc1` are -8% and 1.32.
The corresponding values for `C[C@H](O)C1CCN(C(=O)Nc2ccc3sncc3c2)CC1` are -5% and 0.52.
As to `CCc1ccc(NC(=O)N2CCC3OCCN(C)C3C2)cc1CC` (stereo not drawn), the “% Inhibition” value is listed as 9% and the Z score is -1.11.
Consider `CC[C@H]1c2cccn2CCN1C(=O)c1cc(C)nc(C)n1`, for which the “% Inhibition” value amounted to 0% and the Z score was -0.02.
The corresponding values for `Cc1nc(N2CCCC2)nc(N[C@H]2COC[C@@H]2O)c1C` are -9% and 1.81.
`CCc1onc(C)c1CNC(=O)Nc1nsc2ccccc12`: the “% Inhibition” value is recorded as -21% and the Z score was 2.31.
For `CC1=NS(=O)(=O)NC(C)=C1CCC(=O)N1CCc2ccccc2C1`, the “% Inhibition” value was -5% and the Z score is reported as 0.84.
Take `Cc1ccc(F)c(NC(=O)[C@H]2OCC[C@H]2C)c1Br`: the “% Inhibition” value is -11% and the Z score is 1.1.
On to `CCOCC(NC(=O)C1CS(=O)(=O)CC1C(F)(F)F)C(C)C` (stereo not drawn), for which the “% Inhibition” value is -4% and the Z score is given as 0.66.
On the same counts, the results for `COC(=O)C1(CNC(=O)N2CC3C(C2)C3(C)C)CCOCC1` (stereo not drawn) are 12% and -1.37.
In the case of `CCc1ccc(C(=O)NCC[C@H]2COCCC2(OC)OC)c(O)c1`, the “% Inhibition” value was -12% and the Z score is reported as 1.51.
The corresponding values for `C[C@]1(CO)CCCN1C(=O)C1Cc2ccccc2C1` are -7% and 0.76.
For the compound `CCCCN1C(=O)c2ccccc2N2C(=O)CC[C@@]12C(=O)Nc1nccs1`, the “% Inhibition” value was 25% and the Z score is given as -2.95.
On the same counts, the results for `Cc1ncc(-c2noc(C3CC3C3CC3)n2)c(N)n1` (stereo not drawn) are 19% and -3.15.
For `CC(C)=C1C2CCC1C1C(=O)N(c3nc(-c4ccccc4)c(C)s3)C(=O)C21` (stereo not drawn), the “% Inhibition” value is -2% and the Z score came out at 0.27.
On the same counts, the results for `CN1CC(=O)N(CC(=O)N2CCc3c(Cl)cccc3C2)C1=O` are -10% and 1.01.
The corresponding values for `CNC(=O)c1cn(-c2ccccc2)nc1-c1cccc2ccccc12` are -9% and 1.18.
As to `CC(=O)c1cccc(-c2cc(NCc3cccnc3)nc3[nH]ccc23)c1`, the “% Inhibition” value is -1% and the Z score is 0.13.
The corresponding values for `O=C1C[C@@H](c2ccc(Br)cc2)NC(=O)N1` are -10% and 1.38.
As to `Cc1cc(C(=O)N[C@H]2COCC[C@@H]2OCc2ccccn2)nc(C)n1`, the “% Inhibition” value is -15% and the Z score is listed as 1.86.
With `C=CCn1c(=O)c2sc(N3CCCCC3)nc2n(CC(=O)NCc2ccc(C)cc2)c1=O`, the “% Inhibition” value is recorded as -14% and the Z score stood at 1.26.
As to `Cc1nc(C2CCOCC2)n([C@H]2CCN(S(=O)(=O)c3cc(Cl)ccc3Cl)C2)n1`, the “% Inhibition” value is reported as -4% and the Z score came out at 0.48.
Take `O=C(c1cn(Cc2ccc(F)cc2)nn1)N1CCCN(Cc2ccccc2F)CC1`: the “% Inhibition” value is given as -3% and the Z score turned out to be 0.43.
Consider `CCC(C)(NC(=O)C(C)c1ccc2c(c1)OCCO2)C(F)(F)F` (stereo not drawn), for which the “% Inhibition” value was -5% and the Z score came out at 0.74.
For `Cc1ccc(NC[C@H]2CCN(Cc3nnnn3C3CC3)C2)nc1`, the “% Inhibition” value is reported as -4% and the Z score turned out to be 0.44.
Take `CCC(CC)(CC)CNC[C@H]1CCCS1(=O)=O`: the “% Inhibition” value is reported as 6% and the Z score is on record as -0.64.
On the same counts, the results for `Cc1c(C(=O)N2CCC[C@H](O)CC2)ccn1C` are -15% and 2.9.
As to `Cc1cc(C(=O)NC2CCN(C(=O)C3(c4cccc(F)c4)CCC3)CC2)no1`, the “% Inhibition” value was -9% and the Z score came to 1.59.
On to `COc1ccccc1N1CCN(C(=O)Cn2cnc3c(cnn3-c3cc(Cl)ccc3C)c2=O)CC1`, for which the “% Inhibition” value is listed as -1% and the Z score amounted to 0.22.
As to `CC(C)c1nc(CCn2cnnn2)n(-c2cccc3cccnc23)n1`, the “% Inhibition” value is listed as -4% and the Z score stood at 0.54.
As to `O=C(CNS(=O)(=O)c1ccccc1)OC(c1ccccc1)c1ccccc1`, the “% Inhibition” value turned out to be 4% and the Z score is on record as -0.63.
On the same counts, the results for `Cc1cccc2nc(CCNc3nccn(C)c3=O)cn12` are -11% and 0.9.
The corresponding values for `COc1ccc(CCNc2nc3c(c(C(F)(F)F)n2)CCCCC3)cc1OC` are 1% and -0.08.
Regarding `c1ccc(-c2ncn(Cc3ccc4c(c3)OCO4)c2C2CCOCC2)cc1`, the “% Inhibition” value is given as 0% and the Z score was 0.
Regarding `CC1CN(S(=O)(=O)Cl)C(C)CO1` (stereo not drawn), the “% Inhibition” value was -10% and the Z score is 1.49.
Take `CC(Nc1cnccn1)C(O)Cc1ccccc1` (stereo not drawn): the “% Inhibition” value is listed as -8% and the Z score is 1.07.
On the same counts, the results for `CCCN(CCC)S(=O)(=O)c1ccc2c(c1)N(Cc1noc(C)n1)C(=O)CO2` are 4% and -0.48.
On the same counts, the results for `Cc1cccc(NS(=O)(=O)c2ccc3c(c2)CC(C)(C)OC3)c1` are -19% and 1.71.
For the compound `CC[C@@H](CO)NC(=O)c1cnc(Cc2c(Cl)cccc2Cl)nc1O`, the “% Inhibition” value is recorded as -16% and the Z score turned out to be 1.6.
The corresponding values for `CCc1nnc2n1CCN(C(=O)C1CC1c1ccccc1F)C2` (stereo not drawn) are -7% and 0.56.
On to `Cn1ncc(Cl)c1C(=O)N1C[C@@H]2CC[C@H]1CN(C(=O)C1CCC1)C2`, for which the “% Inhibition” value is listed as -9% and the Z score is 1.71.
On the same counts, the results for `CCN1CCC(NC(=O)c2ccon2)C1c1cc(F)c(F)c(F)c1` (stereo not drawn) are -8% and 1.05.
As to `O=C(NCc1ccccc1)c1ccccc1OC1CN(C2CCC2)C1`, the “% Inhibition” value is given as -5% and the Z score was 0.92.
For the compound `O=C(Nc1ccc(F)c(F)c1)c1ccc(S(=O)(=O)c2ccc(Cl)cc2)s1`, the “% Inhibition” value is -21% and the Z score worked out at 1.98.
Take `C[C@@H](C(=O)N(C)CC1(O)CCC1)n1cnc2c(N)ncnc21`: the “% Inhibition” value is on record as -12% and the Z score is on record as 1.57.
On the same counts, the results for `Cc1ccc(-n2cc(NC(=O)N3CC[C@H](N)[C@@H]3C)cn2)c(C)c1` are -9% and 1.65.
With `Cc1cc2c(cc1C(=O)NCc1nc(-c3cnccn3)n[nH]1)OCCO2`, the “% Inhibition” value amounted to 12% and the Z score is -1.49.
On the same counts, the results for `O=C(N[C@H]1CCc2nccn2C1)c1ccnc(C2CC2)n1` are -8% and 1.67.
For `COc1ccc(CN2CCNC(=O)[C@@H]2CC(=O)N2CCOCC2)c(C)c1C`, the “% Inhibition” value was 4% and the Z score is on record as -0.47.
`COc1ccc2c(c1)C(N1CCN(S(=O)(=O)c3ccccc3C)CC1)=Nc1ccc(C)cc1O2`: the “% Inhibition” value is recorded as 0% and the Z score is given as -0.07.
On the same counts, the results for `FC1(F)CC(Nc2ccnc(C3CC3)n2)C1` are -7% and 1.36.
On the same counts, the results for `Cc1ccc2cc(CN(C(=O)C3CCCCC3)C(C)(C)C)c(O)nc2c1` are -1% and 0.07.
